Reference: patent US7893299B2, “Interleukin-1 and tumor necrosis factor-αmodulators; syntheses of such modulators and methods of using such modulators” (Nereus Pharmaceuticals, Inc., priority 2005, dated 2011)

How the values were obtained:
[1] = tested on: TNF production in RAW264.7 cells; experiment: RAW264.7 LPS/TNF assay (ELISA); type: cell-based, murine; conditions: 4 hr; for inhibition at 10 µM: Mus musculus, RAW264.7, LPS 10 ng/ml, read-out: Inhibition (%) at 10 μM (TNF-α inhibitory activity)
Protocol: After 4 hr LPS stimulation, supernatants were harvested and analyzed for TNF production by ELISA.
DMSO was used as control. Identical sets of plates without LPS stimulation were used for the cytotoxicity assessment.
Various concentrations of NPI-1387 prepared in DMSO were added to cells 1 hr before LPS (10 ng/ml) stimulation. DMSO was used as a control. After 4 hr of LPS stimulation, supernatants were harvested and the level of TNF-α from each sample was analyzed by using the human TNF-α cytoset ELISA kit (Biosource Internationals). IC50 values (the drug concentration at which 50% of the maximal observed TNF-α production is inhibited) were determined using a standard sigmoidal dose response curve fitting algorithm (Prism 2.0, GraphPad Software Inc).

RAW264.7 cells = experiment: RAW264.7 cell viability / apoptosis, propidium iodide flow cytometry; type: cell-based, Murine; conditions: 10 μM
Protocol: To determine whether the test compounds induce apoptosis, flow cytometric measurement of propidium iodide (PI) staining was performed after incubation of the cells with 0.005% PI, following published protocols. Cells were analyzed in a FACScan cytometer equipped with a 25-mW argon laser. The quantification of the percentage of apoptotic cells was calculated using a dot plot of the forward scatter against the PI fluorescence. Cell sorting and analysis of viable and apoptotic populations was performed to confirm the criteria of gating.

[2] = tested on: IL-6 synthesis in RAW 264.7 cells; experiment: SAC-induced IL-6 synthesis in RAW 264.7 cells; type: cell-based, Murine
Protocol: (§1) Murine macrophage cells RAW 264.7 (1×10^6/ml) were pretreated for 30-60 minutes with varying doses of the synthetic compound of Formula (I) and a panel of analogs (diluted in 0.5% DMSO) prior to stimulation with various agents such as lipopolysaccharide (LPS) or a gram positive agent like heat-killed Staph aureus (SAC). Supernatants collected over a 72-hour period will be assayed for the levels of TNF-α, IL-1, IL-6, IL-10, IL-12 and other cytokines either by elisa or bioassay. Additional studies to evaluate the effects of the synthetic compound of Formulae (I), (II), (IIA) and (IIB) on cytokine signaling pathways such as, for example, Caspase-activity (Nr-1, Nr.3), transcription factors such as NF-κB, MAP-kinase activity (p38, ERK and JNK) will also be performed.

[3] = tested on: TNF-α synthesis in RAW 264.7 cells; experiment: LPS-induced TNF-α synthesis in RAW 264.7 cells; type: cell-based, Murine
Protocol: as §1

[4] = tested on: IL-1 synthesis in RAW 264.7 cells; experiment: SAC-induced IL-1 synthesis in RAW 264.7 cells; type: cell-based, Murine
Protocol: as §1

[5] = tested on: TNF-α synthesis in RAW 264.7 cells; experiment: SAC-induced TNF-α synthesis in RAW 264.7 cells; type: cell-based, Murine
Protocol: as §1

SMILES	inhibition at 10 µM [1]	also measured
C=C[C@@]1(C)CC=C2[C@@H](CC[C@@H]3[C@](C)(COC(=O)CC(C)(C)CC(=O)O)CCC[C@@]23C)C1	81.9%	–
C=C[C@@]1(C)CC=C2[C@@H](CC[C@@H]3[C@](C)(COC(=O)CN4CCN(C(C)=O)CC4)CCC[C@@]23C)C1	18%	–
C=C[C@@]1(C)CCC=C2[C@H]1CC[C@@H]1[C@](C)(C(=O)NC3CCCCC3)CCC[C@@]21C [Formula (IIB-A1), N-Cyclohexylamide Derivative of TTL]	–	RAW264.7 cell viability (RAW264.7 cells): did not affect
C=C[C@@]1(C)CC=C2[C@@H](CC[C@@H]3[C@](C)(C(=O)N4CCCC4)CCC[C@@]23C)C1	33.4%	–
C=C[C@@]1(C)CC=C2[C@@H](CC[C@@H]3[C@](C)(COC(=O)CN4CCN(S(=O)(=O)c5ccc(OC)cc5)CC4)CCC[C@@]23C)C1	32%	–
C=C[C@@]1(C)CC=C2[C@@H](CC[C@@H]3[C@](C)(C(=O)O)CCC[C@@]23C)C1 [Formula (I), acanthoic acid, reference compound]	–	IL-6 ([2]; compound at 0.1 μg/ml): 65 ng/mL; IL-6 ([2]; compound at 1 μg/ml): 90 ng/mL; IL-6 ([2]; compound at 10 μg/ml): 80 ng/mL; TNF-α ([3]; compound at 0.1 μg/ml): 108 ng/mL; TNF-α ([3]; compound at 1 μg/ml): 67 ng/mL; TNF-α ([3]; compound at 10 μg/ml): 50 ng/mL; IL-1α ([4]; compound at 0.1 μg/ml): 1350 pg/mL; IL-1α ([4]; compound at 1 μg/ml): 1050 pg/mL; IL-1α ([4]; compound at 10 μg/ml): 350 pg/mL; TNF-α ([5]; compound at 0.1 μg/ml): 410 ng/mL; TNF-α ([5]; compound at 1 μg/ml): 275 ng/mL; TNF-α ([5]; compound at 10 μg/ml): 165 ng/mL
C=C[C@@]1(C)CC=C2[C@@H](CC[C@@H]3[C@](C)(COC(=O)COCC(=O)O)CCC[C@@]23C)C1	11.5%	–
C=C[C@@]1(C)CC=C2[C@@H](CC[C@H]3[C@@]2(C)CCC[C@@]3(C)C(O)c2ccccc2)C1 (stereo partly drawn)	23.1%	–
C=C[C@@]1(C)CC=C2[C@@H](CC[C@@H]3[C@](C)(COC(=O)CCC(=O)O)CCC[C@@]23C)C1	68.5%	–
C=C[C@@]1(C)CC=C2[C@@H](CC[C@@H]3[C@](C)(COC(=O)CCC(C)(C)C(=O)O)CCC[C@@]23C)C1	30%	–
C=CC(O)[C@]1(C)CCC[C@@]2(C)C3=CC[C@](C)(C=C)C[C@@H]3CC[C@@H]21 (stereo partly drawn)	27.6%	–
C=C[C@@]1(C)CC=C2[C@@H](CC[C@@H]3[C@](C)(COC(=O)CN4CCN(S(C)(=O)=O)CC4)CCC[C@@]23C)C1	17%	–
C=C[C@@]1(C)CC=C2[C@@H](CC[C@@H]3[C@](C)(C(=O)NCCC(=O)O)CCC[C@@]23C)C1	10.3%	–
C=C[C@@]1(C)CC=C2[C@@H](CC[C@@H]3[C@](C)(COS(C)(=O)=O)CCC[C@@]23C)C1	74%	–
C=C[C@@]1(C)CC=C2[C@@H](CC[C@@H]3[C@](C)(C(C)=O)CCC[C@@]23C)C1	7%	–
C=CC(=O)[C@]1(C)CCC[C@@]2(C)C3=CC[C@](C)(C=C)C[C@@H]3CC[C@H]12	96%	–
C=C[C@@]1(C)CC=C2[C@@H](CC[C@@H]3[C@](C)(C(=O)NCc4ccccc4)CCC[C@@]23C)C1	56.9%	–
C=C[C@@]1(C)CC=C2[C@@H](CC[C@@H]3[C@](C)(COS(=O)(=O)c4ccccc4)CCC[C@@]23C)C1	32%	–
C=C[C@@]1(C)CC=C2[C@@H](CC[C@@H]3[C@](C)(C(=O)NCC(C)C)CCC[C@@]23C)C1	41.9%	–
C=C[C@@]1(C)CC=C2[C@@H](CC[C@@H]3[C@](C)(COC(=O)CN4CCNCC4)CCC[C@@]23C)C1	48%	–
C=C[C@@]1(C)CC=C2[C@@H](CC[C@@H]3[C@](C)(C(=O)N[C@H](C)C(=O)O)CCC[C@@]23C)C1	41.6%	–
C=C[C@@]1(C)CC=C2[C@@H](CC[C@@H]3[C@](C)(COS(=O)(=O)c4ccc(C(=O)O)cc4)CCC[C@@]23C)C1	41%	–

SMILES	inhibition at 10 µM [1]	also measured
C=C[C@@]1(C)CC=C2[C@@H](CC[C@@H]3[C@](C)(C(=O)/C=C/C)CCC[C@@]23C)C1	29%	–
C=C[C@@]1(C)CC=C2[C@@H](CC[C@H]3[C@@]2(C)CCC[C@@]3(C)/C=N/OC)C1	–	Inhibition (%) at 10 μM (TNF-α inhibitory activity) ([1]; LPS 10 ng/ml): No Activity
C=C[C@@]1(C)CC=C2[C@@H](CC[C@@H]3[C@](C)(COS(=O)(=O)c4ccc(I)cc4)CCC[C@@]23C)C1	28%	–
C=C[C@@]1(C)CCC=C2[C@H]1CC[C@@H]1[C@](C)(C(=O)N3CCOCC3)CCC[C@@]21C [LT-1-85]	–	RAW264.7 cell viability (RAW264.7 cells): did not affect
C=C[C@@]1(C)CC=C2[C@@H](CC[C@@H]3[C@](C)(C(=O)N[C@H](C(=O)O)C(C)C)CCC[C@@]23C)C1	88%	–
C=C[C@@]1(C)CC=C2[C@@H](CC[C@H]3[C@@]2(C)CCC[C@@]3(C)/C=N/OCc2ccc(F)cc2)C1	6%	–
C=C[C@@]1(C)CC=C2[C@@H](CC[C@@H]3[C@](C)(C(=O)c4ccccc4)CCC[C@@]23C)C1	6.9%	–
C=C[C@@]1(C)CC=C2[C@@H](CC[C@@H]3[C@](C)(C(=O)N[C@@H](C)C(=O)O)CCC[C@@]23C)C1	96.7%	–
C=C[C@@]1(C)CC=C2[C@@H](CC[C@@H]3[C@](C)(C(=O)NCCCCCC)CCC[C@@]23C)C1	41.4%	–
C=C[C@@]1(C)CC=C2[C@@H](CC[C@@H]3[C@](C)(CO)CCC[C@@]23C)C1	28.6%	–
C=C[C@@]1(C)CC=C2[C@@H](CC[C@H]3[C@@]2(C)CCC[C@@]3(C)/C=N/O)C1	75.9%	–
C=C[C@@]1(C)CC=C2[C@@H](CC[C@@H]3[C@](C)(C(=O)N[C@@H](CC(C)C)C(=O)O)CCC[C@@]23C)C1	81%	–
C=C[C@@]1(C)CC=C2[C@@H](CC[C@@H]3[C@](C)(COS(=O)(=O)c4ccc(OC)cc4)CCC[C@@]23C)C1	32%	–
C=C[C@@]1(C)CC=C2[C@@H](CC[C@H]3[C@@]2(C)CCC[C@@]3(C)C(C)O)C1 (stereo partly drawn)	41.9%	–
C=C[C@@]1(C)CC=C2[C@@H](CC[C@H]3[C@@]2(C)CCC[C@@]3(C)C(O)/C=C/C)C1 (stereo partly drawn)	48%	–
C=C[C@@]1(C)CC=C2[C@@H](CC[C@@H]3[C@](C)(COC(=O)CC(C)(C)C(=O)O)CCC[C@@]23C)C1	86%	–
C=C[C@@]1(C)CC=C2[C@@H](CC[C@@H]3[C@](C)(COC(=O)CN4CCN(S(=O)(=O)c5ccc(C)cc5)CC4)CCC[C@@]23C)C1	11%	–
C=C[C@@]1(C)CC=C2[C@@H](CC[C@@H]3[C@](C)(C(=O)N[C@H](C(=O)O)c4ccccc4)CCC[C@@]23C)C1	95%	–
C=C[C@@]1(C)CC=C2[C@@H](CC[C@H]3[C@@]2(C)CCC[C@@]3(C)/C=N/OCc2ccccc2)C1	13%	–
C=C[C@@]1(C)CC=C2[C@@H](CC[C@@H]3[C@](C)(C(=O)N[C@@H](Cc4ccccc4)C(=O)O)CCC[C@@]23C)C1	85%	–
C=C[C@@]1(C)CC=C2[C@@H](CC[C@@H]3[C@](C)(C(=O)NCC(=O)O)CCC[C@@]23C)C1	6.3%	–
